# The list shows a part of the results.
# Experiments:
# Experiment in all cases: glycan array binding signal (z-score within array); higher = stronger binding
# Settings in all cases: glycan notation: IUPAC condensed, linker removed
# [1] = biological target: Fuc(a1-2)Gal
# In short: (§1)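 Glycan array binding is given as a within-array Z-score, which can be read as non-binding when negative. The arrays, 3228 of them, came from the Consortium for Functional Glycomics database and were retained only where the protein sequence was available. Z-scores were averaged across arrays of the same protein sequence at different concentrations or buffers and across linkers.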
# [2] = biological target: Fuc(a1-2)Gal(b1-3)GalNAc
# In short: as §1
# [3] = biological target: Fuc(a1-2)Gal(b1-3)GalNAc(a1-3)[Fuc(a1-2)]Gal(b1-4)Glc
# In short: as §1
# [4] = biological target: Fuc(a1-2)Gal(b1-3)GalNAc(a1-3)[Fuc(a1-2)]Gal(b1-4)GlcNAc
# In short: as §1
# [5] = biological target: Fuc(a1-2)Gal(b1-3)GalNAc(b1-3)Gal
# In short: as §1
# [6] = biological target: Fuc(a1-2)Gal(b1-3)GalNAc(b1-3)Gal(a1-4)Gal(b1-4)Glc
# In short: as §1
# [7] = biological target: Fuc(a1-2)Gal(b1-3)GalNAc(b1-4)[Neu5Ac(a2-3)]Gal(b1-4)Glc
# In short: as §1
# [8] = biological target: Fuc(a1-2)Gal(b1-3)GlcNAc
# In short: as §1
# [9] = biological target: Fuc(a1-2)Gal(b1-3)GlcNAc(b1-2)Man(a1-3)[Fuc(a1-2)Gal(b1-3)GlcNAc(b1-2)Man(a1-6)]Man(b1-4)GlcNAc(b1-4)GlcNAc
# In short: as §1
# [10] = biological target: Fuc(a1-2)Gal(b1-3)GlcNAc(b1-2)Man(a1-3)[Fuc(a1-2)Gal(b1-3)GlcNAc(b1-2)Man(a1-6)]Man(b1-4)GlcNAc(b1-4)[Fuc(a1-6)]GlcNAc
# In short: as §1
# [11] = biological target: Fuc(a1-2)Gal(b1-3)GlcNAc(b1-3)Gal(b1-4)Glc
# In short: as §1
# [12] = biological target: Fuc(a1-2)Gal(b1-3)GlcNAc(b1-3)GalNAc
# In short: as §1
# [13] = biological target: Fuc(a1-2)Gal(b1-3)GlcNAc(b1-3)[Fuc(a1-2)Gal(b1-3)GlcNAc(b1-6)]GalNAc
# In short: as §1
# [14] = biological target: Fuc(a1-2)Gal(b1-3)GlcNAc(b1-3)[Gal(b1-4)GlcNAc(b1-6)]Gal(b1-4)Glc
# In short: as §1
# [15] = biological target: Fuc(a1-2)Gal(b1-3)GlcNAc(b1-3)[Neu5Ac(a2-6)Gal(b1-4)GlcNAc(b1-6)]Gal(b1-4)Glc
# In short: as §1
# [16] = biological target: Fuc(a1-2)Gal(b1-3)GlcNAc6S
# In short: as §1
# [17] = biological target: Fuc(a1-2)Gal(b1-3)[Fuc(a1-4)]GlcNAc
# In short: as §1
# [18] = biological target: Fuc(a1-2)Gal(b1-3)[Fuc(a1-4)]GlcNAc(b1-2)Man(a1-3)[Fuc(a1-2)Gal(b1-3)[Fuc(a1-4)]GlcNAc(b1-2)Man(a1-3)]Man(b1-4)GlcNAc(b1-4)GlcNAc
# In short: as §1
# [19] = biological target: Fuc(a1-2)Gal(b1-3)[Fuc(a1-4)]GlcNAc(b1-2)Man(a1-3)[Fuc(a1-2)Gal(b1-3)[Fuc(a1-4)]GlcNAc(b1-2)Man(a1-6)]Man(b1-4)GlcNAc(b1-4)[Fuc(a1-6)]GlcNAc(b1-4)[Fuc(a1-6)]GlcNAc
# In short: as §1
# [20] = biological target: Fuc(a1-2)Gal(b1-3)[Fuc(a1-4)]GlcNAc(b1-3)[Fuc(a1-3)[Gal(b1-4)]GlcNAc(b1-6)]Gal(b1-4)Glc
# In short: as §1
# [21] = biological target: Fuc(a1-2)Gal(b1-3)[Fuc(a1-4)]GlcNAc(b1-3)[Gal(b1-4)GlcNAc(b1-6)]Gal(b1-4)Glc
# In short: as §1
# [22] = biological target: Fuc(a1-2)Gal(b1-4)Fuc(a1-3)]GlcNAc(b1-2)Man(a1-3)[Fuc(a1-2)Gal(b1-4)[Fuc(a1-3)]GlcNAc(b1-2)Man(a1-6)]Man(b1-4)GlcNAc(b1-4)GlcNAc
# In short: as §1
# [23] = biological target: Fuc(a1-2)Gal(b1-4)Glc
# In short: as §1
# [24] = biological target: Fuc(a1-2)Gal(b1-4)Glc6S
# In short: as §1
# [25] = biological target: Fuc(a1-2)Gal(b1-4)GlcNAc
# In short: as §1
# [26] = biological target: Fuc(a1-2)Gal(b1-4)GlcNAc(b1-2)Man
# In short: as §1
# [27] = biological target: Fuc(a1-2)Gal(b1-4)GlcNAc(b1-2)Man(a1-3)[Fuc(a1-2)Gal(b1-4)GlcNAc(b1-2)Man(a1-6)]Man(b1-4)GlcNAc(b1-4)GlcNAc
# In short: as §1
# [28] = biological target: Fuc(a1-2)Gal(b1-4)GlcNAc(b1-2)Man(a1-3)[Fuc(a1-2)Gal(b1-4)GlcNAc(b1-2)Man(a1-6)]Man(b1-4)GlcNAc(b1-4)[Fuc(a1-6)]GlcNAc
# In short: as §1
# [29] = biological target: Fuc(a1-2)Gal(b1-4)GlcNAc(b1-2)[Fuc(a1-2)Gal(b1-4)GlcNAc(b1-4)]Man(a1-3)[Fuc(a1-2)Gal(b1-4)GlcNAc(b1-2)Man(a1-6)]Man(b1-4)GlcNAc(b1-4)GlcNAc
# In short: as §1
# [30] = biological target: Fuc(a1-2)Gal(b1-4)GlcNAc(b1-3)Gal(b1-4)GlcNAc
# In short: as §1
binder,measurement,setting,value
"CC1G-10077 (Coprinopsis cinerea), A8NDT7 (protein) MALNEGVYWIRNSRFTNKVLDLDAANVAKGTSILDFNEHGTFNENHNQLWIVERFQSRDTYLIRSVHSNLVLDLSQGLSANGTPILCWTQHGGTNQQWRIEWVKDDNKTPLYRIVSVATGTAISHNEDDSSAYTVAWSVDDGPKQLWSFDPFVTPLLYRLRVKSTSRVLDLAAASADNGTLALAWEQHTAITKRNQLWWLPYRSGAEEYTIQCLETSTVADLSGGNSGNGTPIYGWQSHGGRNQQWKFEPTSDSGDYYHIKNVEGGSVMDAYMNDSQKRVGGWSNNGGDNQKWLLDPLPSPGPGWVLIQNGGTGKFLCSTPSGDIGTADGPETVYDYSVQWRFIQREYTGVYHVVNRATGAYLRQIGTSMPSIGLAEENDDELKDWWMLETYDNSEIGLASIISRWTGNVLDHYGGVSVQALDNNTENSYRSWAIIPARDWLTSFSLVNGQGGLCLAAQYAREETRLSTTANVNDFHAQWVFRKPSGSSGYTIQNKYNNHYVGGTSARWELVVCCNKYFGIRNTSTQKYLAIEDGQVTFQDQDMTDRKQCWELCSGRATDTSGNDYDLIYMDDDLLEVMIPWVGDKQGDLKHYIEKRATKKPPKDKGGWQLPAAGLIKKPKFNDIRQLLQELIEQWEWDVVNEEREQIQTLVSIDEAEARRLLGRRPHPDIVAAYQRSRSSTLFRIDRQGYFNIAGDRYVNIQGQYGDDSYFHIALPVGVRFGREQIRRFLRDSLDRSTSVTITPTTCKPPSGGPDYNRDPDSDGDNSWIKWTIAVVGTSAIKHSEL",glycan array binding signal (z-score),[1],-0.388
same,glycan array binding signal (z-score),[2],-0.484
same,glycan array binding signal (z-score),[3],-0.462
same,glycan array binding signal (z-score),[4],-0.497
same,glycan array binding signal (z-score),[5],-0.456
same,glycan array binding signal (z-score),[6],-0.416
same,glycan array binding signal (z-score),[7],-0.453
same,glycan array binding signal (z-score),[8],-0.495
same,glycan array binding signal (z-score),[9],-0.383
same,glycan array binding signal (z-score),[10],-0.437
same,glycan array binding signal (z-score),[11],-0.448
same,glycan array binding signal (z-score),[12],-0.394
same,glycan array binding signal (z-score),[13],-0.264
same,glycan array binding signal (z-score),[14],0.69
same,glycan array binding signal (z-score),[15],-0.23
same,glycan array binding signal (z-score),[16],-0.482
same,glycan array binding signal (z-score),[17],-0.493
same,glycan array binding signal (z-score),[18],-0.472
same,glycan array binding signal (z-score),[19],-0.384
same,glycan array binding signal (z-score),[20],-0.303
same,glycan array binding signal (z-score),[21],0.268
same,glycan array binding signal (z-score),[22],-0.343
same,glycan array binding signal (z-score),[23],-0.353
same,glycan array binding signal (z-score),[24],-0.453
same,glycan array binding signal (z-score),[25],-0.192
same,glycan array binding signal (z-score),[26],-0.429
same,glycan array binding signal (z-score),[27],0.081
same,glycan array binding signal (z-score),[28],-0.348
same,glycan array binding signal (z-score),[29],-0.227
same,glycan array binding signal (z-score),[30],0.084

# From the supplement of paper PMC8728848
